According to article PMC4336329 (PLoS ONE, 2015):
In all, about 310,000 compounds went through this assay and about 2,200 (0.71%) showed an effect of 50% or more. Effects have a minus sign here. This is one part of the list.

The compounds below were run against human ether-à-go-go-related gene (hERG) potassium channel (human, UniProt Q12809) (assay: primary screen, population patch clamp on CHO cells stably expressing hERG).
Chain of human ether-à-go-go-related gene (hERG) potassium channel (Q12809 whole entry, looked up): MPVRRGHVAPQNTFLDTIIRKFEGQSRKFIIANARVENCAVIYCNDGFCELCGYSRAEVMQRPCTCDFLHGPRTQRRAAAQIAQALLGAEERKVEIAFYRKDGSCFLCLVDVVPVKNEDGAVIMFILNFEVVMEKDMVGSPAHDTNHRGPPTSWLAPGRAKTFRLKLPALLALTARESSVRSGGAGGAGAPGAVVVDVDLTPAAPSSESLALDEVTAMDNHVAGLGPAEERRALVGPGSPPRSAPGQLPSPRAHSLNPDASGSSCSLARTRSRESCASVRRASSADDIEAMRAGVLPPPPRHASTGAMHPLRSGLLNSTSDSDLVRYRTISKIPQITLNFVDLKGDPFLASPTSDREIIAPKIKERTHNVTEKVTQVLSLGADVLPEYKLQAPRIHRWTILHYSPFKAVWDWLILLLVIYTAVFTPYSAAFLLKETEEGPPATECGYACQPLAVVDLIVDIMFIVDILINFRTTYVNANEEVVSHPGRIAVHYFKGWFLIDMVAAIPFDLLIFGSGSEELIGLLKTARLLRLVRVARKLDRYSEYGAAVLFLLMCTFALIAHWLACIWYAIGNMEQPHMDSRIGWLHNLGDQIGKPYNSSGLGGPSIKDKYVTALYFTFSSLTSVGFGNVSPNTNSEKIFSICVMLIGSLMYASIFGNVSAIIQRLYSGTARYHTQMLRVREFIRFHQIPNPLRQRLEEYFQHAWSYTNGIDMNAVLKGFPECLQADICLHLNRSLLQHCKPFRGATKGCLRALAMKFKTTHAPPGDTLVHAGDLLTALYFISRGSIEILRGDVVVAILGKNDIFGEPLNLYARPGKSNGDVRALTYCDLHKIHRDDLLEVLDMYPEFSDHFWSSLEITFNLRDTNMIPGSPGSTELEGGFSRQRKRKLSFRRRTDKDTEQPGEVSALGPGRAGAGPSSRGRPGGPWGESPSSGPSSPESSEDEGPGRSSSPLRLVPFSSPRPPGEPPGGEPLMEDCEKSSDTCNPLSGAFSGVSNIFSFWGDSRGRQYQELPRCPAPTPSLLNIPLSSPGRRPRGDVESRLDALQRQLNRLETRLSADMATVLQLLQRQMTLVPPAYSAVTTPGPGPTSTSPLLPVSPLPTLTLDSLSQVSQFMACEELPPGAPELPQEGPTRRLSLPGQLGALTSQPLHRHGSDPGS

Row | Structure (SMILES) | hERG current change (%, negative = inhibition) at 1uM
1 | O=C(c1ccc(Cl)cc1)C1CCCN(Cc2ccc3ncccc3c2)C1 (stereo not drawn) | -2.91%
2 | COc1cccc(C(=O)NCc2nnc(SCC(=O)Nc3nccs3)n2-c2cccc(C)c2)c1 | -2.19%
3 | C/C=C/Cn1c(Br)nc2c1c(=O)[nH]c(=O)n2C | -2.09%
4 | CN(C)S(=O)(=O)N1CCN(c2ccnc3cc(Cl)ccc23)CC1 | -65.6%
5 | C=CCn1c(SCC(=O)N2CCOCC2)nc2sc(C)c(C)c2c1=O | -23.2%
6 | CCc1ccc(CNC(=O)C2CCCN(c3nn4c(=O)cc(C)nc4s3)C2)cc1 (stereo not drawn) | -4.79%
7 | Clc1ccc(Nc2nc(-c3cccs3)cs2)nc1 | 1.44%
8 | O=C(NCCn1ccc2ccccc21)c1cccc([N+](=O)[O-])c1 | 1.88%
9 | O=C(NCCc1cn2ccsc2n1)c1cccs1 | 3.31%
10 | COc1cc(/C=N/N2CCN(Cc3ccc(Cl)cc3)CC2)ccc1OC(C)=O | 4.61%
11 | O=C(CSc1ccc(-c2ccco2)nn1)NCc1ccc(Cl)cc1 | 1.89%
12 | O=C(COc1ccc(C(=O)O)cc1)Nc1cccc(C(F)(F)F)c1 | 8.66%
13 | O=C1CC2(CCCC2)CC(=O)N1c1ccccc1 | 14.7%
14 | CCNc1nc(Oc2ccc(Cl)cc2Cl)cc(C(F)(F)F)n1 | 5.11%
15 | CCOC(=O)/C=C/C(=O)OCC(=O)N1CCN(C(=O)c2ccco2)CC1 | 5.41%
16 | CCCCc1ccc(NC(=S)N2CCCC(C)C2)cc1 (stereo not drawn) | 10.2%
17 | O=C(O)c1ccccc1C1Nc2ccccc2C(=O)N1CCCN1CCOCC1 (stereo not drawn) | 18.1%
18 | CC(NC(=O)c1cc([N+](=O)[O-])cc([N+](=O)[O-])c1)C1CC2CCC1C2 (stereo not drawn) | 15.1%
19 | CCOc1ccccc1Oc1cn[nH]c1-c1ccc(OC)cc1O | 9.45%
20 | Cc1cccc(N2CCN(C(=O)CNC(=O)c3cccc([N+](=O)[O-])c3)CC2)c1C | -24.3%
21 | CN(C)C(CNc1ccc(C(F)(F)F)cc1[N+](=O)[O-])c1ccccc1 (stereo not drawn) | 2.18%
22 | COc1ccc(-c2[nH]ncc2C=O)cc1 | 11.6%

Row | Structure (SMILES) | hERG current change (%, negative = inhibition) at 1uM
23 | CCOC(=O)C1(CCOc2ccccc2)CCN(C(=O)c2ccc(-n3cccn3)cc2)CC1 | -85.6%
24 | Cc1cc(C(=O)OCC(=O)c2c(N)n(C)c(=O)n(C)c2=O)c(C)o1 | 17.8%
25 | COC(=O)CSc1nnc(CNc2ccc(Cl)cc2)n1Cc1ccccc1 | -19.6%
26 | CCOC(=O)c1c(C)nc2c(c1-c1cc(OC)ccc1OC)C(=O)c1ccccc1-2 | 0.269%
27 | CCN1CCN(C(CC(C)C)c2nnnn2CS(=O)(=O)c2ccc(C)cc2)CC1.Cl (stereo not drawn) | 11%
28 | COCCn1c(SCC(=O)c2ccccc2)nc2c(c1=O)SCC2 | -2.31%
29 | CC1=CC(=O)C(C(C)C)=C/C1=C(\c1cc(C(C)C)c(OP(=O)([O-])[O-])cc1C)c1ccccc1C(=O)O.[Na+] | 12.1%
30 | N#C/C(=C\c1ccccc1O)C(=O)Nc1cccnc1 | 8.27%
31 | O=C(Nc1ccc(F)cc1)C1CCN(S(=O)(=O)c2ccc3[nH]c(=O)oc3c2)CC1 | 0.557%
32 | Cc1ccccc1C(=O)Nc1nnc(-c2ccco2)o1 | 10.3%
33 | O=C(COC(=O)Cc1ccc(Cl)cc1)Nc1ccccc1F | -0.431%
34 | C=CCn1c(O)c(C2=c3ccccc3=NC2=O)s/c1=N/c1nccs1 | 15.7%
35 | COc1cc(NC(=S)N2CCN(CCO)CC2)cc(OC)c1 | 15.3%
36 | O=C(Nc1ccccc1C(=O)O)c1cc(S(=O)(=O)N2CCCCC2)c(Cl)cc1Cl | 17.8%
37 | C=CCNC(=S)/N=c1/ccccn1CC | 18.4%
38 | CCN(CC(=O)NCc1ccc(Cl)cc1)C(=O)c1cc(S(=O)(=O)NCc2ccccc2)ccc1C | -5.01%
39 | Cl.O=C(CSC1=NCCN1)Nc1cccc([N+](=O)[O-])c1 | 7.96%
40 | CCOc1cc(C(=S)N2CCCC2)ccc1OCC(=O)Nc1c(C)cc(C)cc1C | 8.39%
41 | COc1ccc(N2CCN(CC(=O)c3c(C)n(C)c4ccc(OC)cc34)CC2)cc1 | 8.16%
42 | O=C1NC2(CCCC2)N=C1c1ccc(Cl)cc1 | 5.1%
43 | COc1ccccc1-n1c(C)nnc1SCC(N)=O | 9.63%
44 | O=C(NC1CCSC1)c1cccc(Cl)c1 (stereo not drawn) | 14.3%

Row | Structure (SMILES) | hERG current change (%, negative = inhibition) at 1uM
45 | C=CCNc1nc(NCC)nc(N2CCOCC2)n1 | 3.16%
46 | O=C(CN(Cc1ccc(F)cc1)C(=O)CNS(=O)(=O)c1ccc(F)cc1)NCC1CCCO1 (stereo not drawn) | 10.3%
47 | Oc1[nH]c2ccccc2c1N=NC(=S)NCC1CCCO1 (stereo not drawn) | 10.9%
48 | COc1cc(OC)cc(C(=O)N2CCC(C(=O)Nc3ccc4c(c3)OCCO4)CC2)c1 | 12.5%
49 | Cc1nc2c(-c3ccc(Cl)cc3)cnn2c2c1CCC2 | -4.35%
50 | COc1ccc2nccnc2c1[N+](=O)[O-] | 17.3%
51 | CCC(=O)NC(=S)Nc1cc(C(=O)O)ccc1OC | 12.2%
52 | CCCNC(=O)COC(=O)c1n[nH]c2ccccc12 | 12.2%
53 | COc1ccc(N2CCN(C(=O)c3c(Cl)cnn3C)CC2)cc1 | 8.33%
54 | CC(C)C[C@@H](C(=O)NC1CC1)N1C(=O)N2CCc3c([nH]c4ccccc34)[C@@]2(C)C1=O | -3.26%
55 | CCOC(=O)N1CCC(N2Cc3cccc(C(=O)NC(C)c4ccc5c(c4)OCCO5)c3C2=O)CC1 (stereo not drawn) | -18.9%
56 | CC1C/C(=N\NC(=S)NC(C)C)CC(C)(C)C1 (stereo not drawn) | 10.8%
57 | Cc1c(NC(=O)CN2C(=O)NC3(CCCCC3)C2=O)c(=O)n(-c2ccccc2)n1C | -0.29%
58 | Cc1nc(C(C)NC(=O)c2cc(COc3ccc(C)c(C)c3)on2)c(C)s1 (stereo not drawn) | 19.2%
59 | CCN1CCN(CC(=O)N2N=C(c3cccs3)CC2c2ccc(OC)cc2)C(=O)C1=O (stereo not drawn) | 0.514%
60 | O=C(CSc1nc(O)c(Cc2ccccc2)c(=O)[nH]1)c1ccccc1 | 13.1%
61 | COc1ccc(NS(=O)(=O)c2cccs2)cc1S(=O)(=O)N1CCOCC1 | 14.7%
62 | Cc1ccc(-c2nnc(N(C)C(=O)C3CCCO3)s2)cn1 (stereo not drawn) | 10.5%
63 | COc1cccc(-n2nc(C(=O)N3CC(C)CC(C)C3)c3ccccc3c2=O)c1 (stereo not drawn) | 14.5%
64 | COc1ccc(C(=O)NC(=O)CSc2nnc(-c3ccco3)n2-c2ccccc2)cc1 | 8.42%
65 | CCOc1ccc(S(=O)(=O)N2CCCCC2)cc1NC(=O)CN1CCCC1c1cccs1 (stereo not drawn) | -0.0623%
66 | Cc1c(NS(=O)(=O)c2cc(Br)cc3c2N(C(=O)C2CC2)CC3)c(=O)n(-c2ccccc2)n1C | 14%

Row | Structure (SMILES) | hERG current change (%, negative = inhibition) at 1uM
67 | Cc1nnc(NC(=O)CSC2=NN3CCCC(=O)N=C3S2)s1 | 8.54%
68 | O=C(OCc1cc([N+](=O)[O-])cc2c1OCOC2)c1ccc2ccccc2n1 | 13.1%
69 | CCCn1c(SCC(=O)Nc2ccc(C(=O)Nc3ccccc3OC)cc2)n[nH]c1=O | 17.6%
70 | Cc1onc(C(=O)N2CCN(c3ccccc3)CC2)c1[N+](=O)[O-] | 15.4%
71 | Cc1c(C(=O)O)sc2nc(SCC(=O)Nc3ccc(S(=O)(=O)NC(C)(C)C)cc3)[nH]c(=O)c12 | 16.1%
72 | O=C(NCN1CCCCC1)c1cnccn1 | -6.1%
73 | COC(=O)c1ccc(CSc2nnc(-c3ccncc3)n2Cc2ccccc2)o1 | 5%
74 | Cc1ccccc1Nc1c([N+](=O)[O-])ccc2nonc12 | -10.2%
75 | C/C(=N\NC(=O)c1ccco1)c1ccc(NC(=O)c2ccccc2)cc1 | 9.16%
76 | Br.COc1ccc(C(=O)CN2Cc3ccccc3C2=N)cc1 | 1.8%
77 | N#Cc1c(N)nc(Sc2ccc(Cl)cc2)c(C#N)c1-c1ccccc1Cl | 10.2%
78 | Cc1ccc(N(C)S(=O)(=O)c2cccc(C(=O)Nc3nnc(C4CC4)s3)c2)cc1 | 10.1%
79 | CC(C)(C)N(CC(=O)NC1CCCCC1)C(=O)CS(=O)CC(=O)Nc1ccc(F)cc1 (stereo not drawn) | 13.5%
80 | COc1ccc(-n2c(=O)c3ccccc3n(CC(=O)NC3CCCC3)c2=O)c(OC)c1 | -6.61%
81 | O=C(Nc1ccc(F)c(F)c1)C1CCCN(S(=O)(=O)c2cnc[nH]2)C1 (stereo not drawn) | -0.795%
82 | CCC(=O)c1cc2c(cc1NC(=O)c1cccs1)OCCO2 | 7.22%
83 | CCc1nc(-c2ccccc2)c2ccccn12.O=C(O)C(=O)O | -1.42%
84 | O=C(NCC1CCCO1)c1ccc(NC(=O)c2cccc(Cl)c2)cc1 (stereo not drawn) | -1.28%
85 | O=C(NC1CCCC1)C(c1cccs1)N(C(=O)c1ccno1)c1ccccc1 (stereo not drawn) | 7.53%
86 | CC1(c2ccccc2)NC(=O)N(CC(=O)Nc2ccc(Cl)c(S(=O)(=O)N3CCCCC3)c2)C1=O (stereo not drawn) | 9.13%
87 | CCN(CC(=O)Nc1ccccc1OC)C(=O)c1ccc(NC(=O)c2cccs2)cc1 | 12.2%
